# The supplement of paper PMC11417369
# Some of the results follow.
# System: PfAP2-HC AP2 domain (GST-tagged)
# Assay: gcPBM binding intensity (ln(normalized median fluorescence intensity)); higher = stronger DNA binding
# Method in brief: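 Alexa488 anti-GST antibody, scanned at 488 nm, detected GST-tagged P. falciparum DNA-binding domains that had been expressed in E. coli and incubated for 1 h on an Agilent 4 × 180k array. The array carried primer-extended double-stranded 36-bp intergenic genomic probes and negative controls. Binding intensity is the highest Masliner-normalised natural-log median intensity across replicate spots of either orientation of each probe.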
row,Sequence,gcPBM binding intensity (ln)
1,CAAGAAAATTGACACACACACATATTTATATTTATA [CACACA_site7766],10.6
2,AACATATATATATATACATGCATATGAACAACGAAT [TGCATGCA_site93],10.2
3,TATAAAAATGTTTACACACACACATAAATATATTTT [CACACA_site2512],10.2
4,TTTTTTTTTTTTCTGAGTACGAAAAATAGAGATAGA [XGTACX_site3825],9.14
5,TGTATAAATATAATCACACATATATATATATATATA [CACACA_site4365],9.55
6,ATCACATATATATATAATATATATATGTATATATTT [GTGCAC_negctrl_site249],9.6
7,ATATATATATATATATGTACATATATTTTTATTTAT [XGTACX_site3508],9.7
8,AAAAAAAATATATATGCACACACAAAAAAACAAATT [CACACA_site8349],10.2
9,CAACTAATATTAAAACGTACATAAATATTTAACAGA [XGTACX_site625],9.78
10,TATACCTTTTTATTCACACATATATGTCATATGTCA [CACACA_site5423],10.2
11,TTAATTACATGTAATTGTACTTAATTATAAGACATT [XGTACX_site464],9.52
12,TATTACTTATAAATTACACACAAATGATTGAACATT [CACACA_site2259],9.69
13,TTAAAATAAAGAAAATGTACATAAATAAAAATAAAG [XGTACX_site2280],9.83
14,TTTTACCTAAATATCACACATATTTAAATATATATA [CACACA_site5597],9.57
15,TTGTAATAAAGAATTAAAAAAAAATATATACAGGTA [GTGCAC_negctrl_site150],9.6
16,AATATATTTTTTGGTTGTACAGAGATCTTTGTAGAA [XGTACX_site1707],9.51
17,TATAATAATTATACATGTACACATTATTTGGATAAA [XGTACX_site5552],9.6
18,TTTTTATATTTAATGTGTCCTCACTTAAAAGGATGA [XGTACX_site2744],9.25
19,ATTCTCCAAGTTTGATGTACACATATGACGACGGCG [XGTACX_site4912],9.54
20,AAAAATTATAGAAAAGTGCAATACATGTTACACCAT,9.68
21,TACAATAAGGATAAGTGTACATATGTGCATACATAT [XGTACX_site7188],9.77
22,CATATAGCATAATCATGTACACATACAACAAATAGG [XGTACX_site1589],10
23,AAATTGGGGCTTGTTACACACTTAGTGGGAGTTCTA [CACACA_site4485],9.71

row,Sequence,gcPBM binding intensity (ln)
1,AAACTTGTAAGAAACACACACACACCCATATATATA [CACACA_site797],10.5
2,TTACGATTATACAAAAGTACATGTATTACACAATAT [XGTACX_site5138],9.68
3,TATACCAGTTTTAAAAGTACTTGTGCATAAAAAATA [XGTACX_site4794],9.61
4,TATATATATATATATACACACTATATAATTCAAACA [CACACA_site4712],9.69
5,ATGAATAAATTAAAAATGCACACTTTGATGGGTACA [CACACA_site2157],9.72
6,AAAATAAAATAAAAGTGTACGTTTTAAGAACATTGA [XGTACX_site2382],9.72
7,AACATGCTCAACTTTTTTTTTTTTTTTTTTTTTTTT [CACACA_negctrl_site1617],9.41
8,GTAAAAATAAAAACTGGTACACAAGTTGTTATAAAA [XGTACX_site502],9.76
9,CTTTTTTGTTAAAGTGTGCGCAATAGTTATAGACTT [GTGCAC_site9670],9.7
10,TATAATCAATATGTAACACACAAAAGTTATATACTT [CACACA_site7368],9.8
11,AATCTTAAAAATATATGTACTAAAAAAAAAAAAAAT [XGTACX_site6195],9.5
12,TAATAATAAAAATAAACACACATATATATGTATATA [CACACA_site2853],9.77
13,CACTATATAAGAACCTGTACTCAATTTTGCAATATA [XGTACX_site7238],9.58
14,ATATTTATTTATTTATGTACGCACACAGTTGATATT [XGTACX_site5808],10.1
15,AAATTATATTCAAGTGCATGTAACTTATTATTATAT [TGCATGCA_site526],9.67
16,TATATTTTCCTGCAAACACACATATAAATGTGTAGA [CACACA_site533],9.61
17,TCATATATTTTAATATGTACACATTTTTTTGGTATA [XGTACX_site8695],9.58
18,TACAGACTAAAATACACACACACACGCACATATATA [CACACA_site7875],10.7
19,TTTTTCTTTATTAGCACACATAATATTATATATGTG [CACACA_site2629],9.8
20,TACATTTATATATATACACACACACTAATAAAAAAA [CACACA_site8845],10.3
21,TAAATACAGATATATACACACATATATATATTTTAT [CACACA_site5970],9.93
22,ATATGTATATATAAGGTGCAGAAAGGTGGGCAAAAG,10
23,ATAAAAAAGAAACAAACACACATACATACAAACAAA [CACACA_site4256],10.3

row,Sequence,gcPBM binding intensity (ln)
1,CTTTTGTCATTCTTTTGTACACAGTTTGAAATATGT [XGTACX_site1457],10
2,AAATAGAGAAATACAAGTACATATCAAACCAATATA [XGTACX_site1192],10.2
3,ATAATAAATAAATAATGTACATATGAAAGAATAAAT [XGTACX_site8355],9.95
4,ATTCTTTTAAAATAGGTGCTAAAAATAATATGTTAC,9.47
5,TTCACCAGTTGGTAAACATGCAATTTTCCATACAAG [TGCATGCA_site267],9.34
6,ATATAAATACATAAATGTACTTACCATTTAAATATG [XGTACX_site5254],9.74
7,AAAAAAAACGGACACACACACATACCCATACATACA [CACACA_site5574],10.5
8,ATTATTTGTTTAATGAGTACGAAGACAAATTTTACC [XGTACX_site5223],9.54
9,AAAGGAAAAAAAAGCACACACAATATTACTTGAAAT [CACACA_site2588],10.3
10,TATATACACAGACACACACACACATACACGCACATA [CACACA_site6909],10.5
11,GTACTATACAAAGATGATAATCAATATATATATATA [XGTACX_negctrl_site264],9.58
12,AAAGAAAGAAGAAATTGTACATAATAAATAAGTAAA [XGTACX_site3311],9.63
13,ATATAAACAATATTTTGTACATAATTTTATGAGCAT [XGTACX_site6933],9.68
14,GCATATGTTTATTGCACACACCAAAAAGAAAACATA [CACACA_site4384],9.95
15,AAAAAGAACAGAAACACACAAATAAAATAAAATTGT [CACACA_site6921],10.3
16,AAATGTTAATAAAGGTGTACACAAAATAAAAAAAAT [XGTACX_site463],10.5
17,TTAATTGACATAAAAAGTACTCATATAGATATGCAC [XGTACX_site6391],9.54
18,TAATTTTATTTTATATGTACGCAATACAAATATATA [XGTACX_site8461],9.46
19,ATAAAAATAAAAAGTGTGCACACAAAAATATATATA [GTGCAC_site9931],10.5
20,TTACCAAAAAAATGTAGTACAATATAATATTATTTA [XGTACX_site5750],9.5
21,AATATATATATTTAAGTGCATAATATTGTAATATTA,9.74
22,ATATATTATGAAGACTGTACATTTACATGAAAAAAA [XGTACX_site7203],9.65
23,CACCCCCACAGACACACACACACACCCATATATATA [CACACA_site364],10.6

row,Sequence,gcPBM binding intensity (ln)
1,AAGATTCATTGGTTCTGTACAAAATAAACACTATAA [XGTACX_site834],9.52
2,ATATATAATTAATTTTGTACACATAAAAAAAAAAAT [XGTACX_site6647],9.69
3,AGAGAGAAAGCTATAACATGCAACAATTTTTTGAAA [TGCATGCA_site514],9.57
4,ATATTTGCATGTGGTAGTACATAACATTCTTTTACA [XGTACX_site8194],9.75
5,ATATCTTATAATACGGTGCACTTGACATGAACAACT [GTGCAC_site9987],9.68
6,CTTCAATTAAAATTCACACATATAAATTAAAATATT [CACACA_site6129],9.43
7,ACATATTATATATGTGTGCACATATATATATATTTA [GTGCAC_site9591],10.1
8,TTTATTTAAAAAGTTTGTACATATATATTATTTTGA [XGTACX_site6040],9.45
9,AATTTATTATTTTATTGTACGTATTTTTTTTTTTAT [XGTACX_site2298],9.76
10,AAAAAATATTAGACTTATAAAGCATAAAGGATATTA [GTGCAC_negctrl_site588],9.6
11,CATATATAAATATATACACACATACATACATACATA [CACACA_site5988],10.6
12,ATATTATAGTTATGAACATGCAAACATTACGAAATA [TGCATGCA_site54],9.69
13,TTTATATATATAATATGTACACATAATAATAATACA [XGTACX_site4862],9.29
14,AAATGACATTTCAAAAGTACATATTTAATTAATTAA [XGTACX_site2919],9.51
15,TTAAATATAAAAAGTAGTACATTTATATTTACCATA [XGTACX_site2962],9.41
16,AAAAAACGACCTTACGCACACATTATTCTAGTCTAT [CACACA_site2349],9.99
17,TCAAATTATATGAGTGGTACACATGTAATATTTTTA [XGTACX_site6518],9.67
18,AAAAAAATATATATTACACACATATATACATATATA [CACACA_site3125],9.78
19,ATATTTTGTATAATCACACACACTATTATTAAATAG [CACACA_site2612],10.2
20,TTACATTTTTTATGTTTTTTTATATTGCAAAAAAAT [CACACA_negctrl_site1050],9.46
21,ATATATATATATATATGTACTTATTAAGATTAAAAA [XGTACX_site61],9.6
